This is one part of the list. Repeats are few or missing, and single values can be far off.
Assays:
Assay in all cases: cell count relative to DMSO control; melanoma cells; higher = more viable cells
Conditions in all cases: library dose: standard library concentration; 72 h
501Mel = system: 501Mel
A101D = system: A101D
A2058 = system: A2058
A375 = system: A375
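Further: cells treated in 1,536-well plates, then fixed and DAPI-stained, with nuclei counted from automated high-throughput microscope images.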

SMILES | cell count (501Mel) [%] | cell count (A101D) [%] | cell count (A2058) [%] | cell count (A375) [%]
Cc1ccc(Nc2nccc(N(C)c3ccc4c(C)n(C)nc4c3)n2)cc1S(N)(=O)=O [Pazopanib] + Cn1cc(/C=C2\C(=O)Nc3cccnc32)c2ccccc21 [GW441756] (first compound 2 µM, partner dose 2 µM) | 68.2 | 81.7 | 130 | 148
O=C(/C=C/c1cccnc1)NCCCCC1CCN(C(=O)c2ccccc2)CC1 + O=C(Nc1ccccc1)c1cc([N+](=O)[O-])ccc1Cl [GW9662] (first compound 0.05 µM, partner dose 10 µM) | 69.7 | 75.9 | 119 | 147
O=C(/C=C/c1cccnc1)NCCCCC1CCN(C(=O)c2ccccc2)CC1 + O=S(=O)(c1ccccc1)N(CC(F)(F)F)c1ccc(C(O)(C(F)(F)F)C(F)(F)F)cc1 [T0901317] (first compound 0.05 µM, partner dose 7 µM) | 45.5 | 88.1 | 108 | 106
O=C(/C=C/c1cccnc1)NCCCCC1CCN(C(=O)c2ccccc2)CC1 + CO[C@@H]1[C@H](N(C)C(=O)c2ccccc2)C[C@H]2O[C@]1(C)n1c3ccccc3c3c4c(c5c6ccccc6n2c5c31)C(=O)NC4 [Midostaurin] (first compound 0.05 µM, partner dose 0.4 µM) |  | 64.2 | 70.1 | 71.6
CC1(C)CCC(c2ccc(Cl)cc2)=C(CN2CCN(c3ccc(C(=O)NS(=O)(=O)c4ccc(N[C@H](CCN5CCOCC5)CSc5ccccc5)c(S(=O)(=O)C(F)(F)F)c4)cc3)CC2)C1 + CCc1ccc(CCOc2ccc(CC3SC(=O)NC3=O)cc2)nc1 [pioglitazone] (first compound 2 µM, partner dose 10 µM) | 83.5 | 46 | 91.3 | 68.5
O=C(/C=C/c1cccnc1)NCCCCC1CCN(C(=O)c2ccccc2)CC1 + c1cc(-c2cnn3cc(-c4ccc(OCCN5CCCCC5)cc4)cnc23)ccn1 [Dorsomorphin] (first compound 0.05 µM, partner dose 2 µM) | 59.8 | 72.4 | 89.6 | 103
O=C(/C=C/c1cccnc1)NCCCCC1CCN(C(=O)c2ccccc2)CC1 + C[C@]1(c2nc3c(C(N)=O)cccc3[nH]2)CCCN1 [Veliparib] (first compound 0.05 µM, partner dose 7 µM) |  | 91 | 60.3 | 80.3
Cc1ccc(Nc2nccc(N(C)c3ccc4c(C)n(C)nc4c3)n2)cc1S(N)(=O)=O [Pazopanib] + OCCn1cc(-c2cnc3nnn(Cc4ccc5ncccc5c4)c3n2)cn1 [PF04217903] (first compound 2 µM, partner dose 5 µM) |  | 89.5 | 102 | 84.4
CC1(C)CCC(c2ccc(Cl)cc2)=C(CN2CCN(c3ccc(C(=O)NS(=O)(=O)c4ccc(N[C@H](CCN5CCOCC5)CSc5ccccc5)c(S(=O)(=O)C(F)(F)F)c4)cc3)CC2)C1 + OCCn1cc(-c2cnc3nnn(Cc4ccc5ncccc5c4)c3n2)cn1 [PF04217903] (first compound 2 µM, partner dose 5 µM) |  | 49.9 | 92.3 | 78
CC1(C)CCC(c2ccc(Cl)cc2)=C(CN2CCN(c3ccc(C(=O)NS(=O)(=O)c4ccc(N[C@H](CCN5CCOCC5)CSc5ccccc5)c(S(=O)(=O)C(F)(F)F)c4)cc3)CC2)C1 + COc1cc2c(Oc3ccc4[nH]c(C)cc4c3F)ncnc2cc1OCCCN1CCCC1 [cediranib] (first compound 2 µM, partner dose 2 µM) |  | 57.2 | 89.8 | 77.8
Cc1ccc(Nc2nccc(N(C)c3ccc4c(C)n(C)nc4c3)n2)cc1S(N)(=O)=O [Pazopanib] + COc1ccc(COc2ccc(Cc3cnc(N)nc3N)cc2OC)cc1 [GW2580] (first compound 2 µM, partner dose 5 µM) | 75.7 | 73.4 | 105 | 67.5
Cc1ccc(Nc2nccc(N(C)c3ccc4c(C)n(C)nc4c3)n2)cc1S(N)(=O)=O [Pazopanib] + COc1cc(N2CCC(N3CCN(C)CC3)CC2)ccc1Nc1ncc(Cl)c(Nc2ccccc2S(=O)(=O)C(C)C)n1 [NVP-TAE684] (first compound 2 µM, partner dose 0.4 µM) | 86.8 | 82.3 | 72.7 | 88
